Measured values: PubChem BioAssay AID463173 (ICCB-Longwood Screening Facility, Harvard Medical School, 2010)
Among all 52,000 compounds or so, about 4,300 (8.3%) were called active. Rule as the data show it: active = survival mostly below about 52% (no sharp cut-off); inactive = mostly above about 56%. This is one part of the list.

Each compound was assayed on DeltatarO mutant (assay: growth inhibition of S. aureus wild type versus tarO mutant, primary screen, teichoic acid synthesis inhibitors, RN4220, OD600 (AID 463173)). Details: OD600, 18 h, active compounds read low, screened at 18.75 µg/mL (by protocol).

SMILES | survival
O=C(Cn1c(=O)nc(-c2ccccc2)c2cc(Cl)ccc21)NCCc1ccc(Cl)cc1 | inactive: 84%
CCn1c(=O)c(=O)n(CC)c2cc(N3CCCCC3)c(NC(=O)c3cccc(F)c3)cc21 | inactive: 83%
CC(C)(C)c1nnc(NC(=O)CS(=O)(=O)Cc2ccccc2)s1 | inactive: 95%
CCOC(=O)CNc1nnc(SCC(=O)OCC)[nH]c1=O | inactive: 71%
Cc1ccc2c(c1)N(C(=O)NCc1ccccc1)CCO2 | inactive: 79%
CCC(C)NC(=O)c1ccc2c(=O)n3c(nc2c1)CCCCC3 (stereo unspecified) | inactive: 86%
Cc1ccc(NC(=O)Cn2nnc3sc(-c4ccccc4)cc3c2=O)cc1Cl | inactive: 52%
COC(=O)c1ccc(Cl)cc1NC(=O)N(Cc1ccc(C)o1)C1CCN(C(C)=O)CC1 | inactive: 95%
COc1ccc(C(=O)NCC2(N3CCN(C)CC3)CCCCC2)cc1 | inactive: 69%
COc1ccc(C)cc1NS(=O)(=O)c1ccc2c(c1)n(C)c(=O)n2C | inactive: 89%
CCC(CC)c1nn2c(=O)cc(COc3ccc(NC(=O)c4cccc(Cl)c4)cc3)nc2s1 | inactive: 79%
CCO/C(C)=N\Oc1cc(=O)oc2ccccc12 | inactive: 82%
COc1ccc(Cl)cc1NC(=O)CCC(=O)N1CCOc2ccccc21 | inactive: 60%
Cc1nc2ccc(NC(=O)C3CC3)cc2c(=O)n1Cc1ccc(F)cc1 | inactive: 74%
COc1ccc(NC(=O)Cn2c(=O)n(Cc3ccc(C(=O)NCc4ccccc4Cl)cc3)c(=O)c3ccccc32)cc1OC | inactive: 97%
COc1ccc(NC(=O)CSc2nc(-c3ccco3)cc(C(F)(F)F)n2)cc1 | inactive: 86%
Cc1cc2c(N=NC(=O)C3CC34CCC4)c(O)[nH]c2cc1Br (stereo unspecified) | inactive: 57%
CC(C)CN1C(=O)c2ccc(Br)cc2C1=O | inactive: 67%
COC(=O)c1ccc(C(C)N(C)C)o1 (stereo unspecified) | inactive: 93%
CCCN1Cc2cccc(C(=O)Nc3cc(C)cc(C)c3)c2C1=O | inactive: 85%
O=C(O)c1ccc(CO)o1 | inactive: 93%
CC(=O)Nc1ccc(C)cc1-c1nc2ccccc2n(CC(=O)Nc2cc(Cl)ccc2C)c1=O | inactive: 78%
CCOC(=O)c1c(C)oc2ccc(N(C(=O)c3ccncc3)S(=O)(=O)c3ccc(CC)cc3)cc12 | inactive: 60%

SMILES | survival
COc1ccc(OC)c(S(=O)(=O)Nc2ccc3c(c2)n(C)c(=O)n3C)c1 | inactive: 115%
O=C(CN1C(=O)COc2ccc(S(=O)(=O)NC3CCCC3)cc21)Nc1ccc(Cl)cc1F | inactive: 78%
CCOC(=O)c1c(C)[nH]c(CCC(=O)Nc2cc(Cl)ccc2OC)c1C | inactive: 94%
CN(C)N1C(=O)CC(NCc2ccccc2)C1=O (stereo unspecified) | inactive: 95%
CCOC(=O)c1cccc(NC(=O)CCc2nc3cccnc3n2-c2ccccc2)c1 | inactive: 95%
CCOc1ccc(NC(=O)C2(c3cccs3)CCOCC2)cc1 | inactive: 84%
Cc1cc(C)c2sc(NC(=O)c3ccc(S(=O)(=O)N4CCCC4)cc3)nc2c1 | active: 37%
O=S(=O)(NC1CCCC1)c1cccs1 | inactive: 71%
COc1ccccc1C(=O)Nc1nc2nc(C)cc(=O)n2[nH]1 | inactive: 96%
CCOc1cccc(C(=O)N(Cc2ccc(C)o2)C2CCS(=O)(=O)C2)c1 (stereo unspecified) | inactive: 96%
COc1cccc(CNC(=O)c2cc(-c3ccc(Cl)cc3)n[nH]2)c1 | inactive: 107%
CCC(CC)c1nn2c(=O)cc(COc3ccc(NC(=O)c4cccc(C)c4)cc3)nc2s1 | inactive: 120%
O=C(CCC(=O)N1CCSc2ccccc21)Nc1ccc(Cl)cc1 | inactive: 68%
COc1ccccc1CNS(=O)(=O)c1cc(Br)cc2c1N(C(=O)C1CC1)CC2 | inactive: 58%
COc1ccc(CNc2nc(-c3ccc(Cl)cc3)nn2S(=O)(=O)c2ccc(C)cc2)cc1 | inactive: 62%
Cc1nc(N2CCOCC2)c2c(C(=O)NCc3ccc(Cl)cc3)c(C)oc2n1 | inactive: 107%
CN(C)S(=O)(=O)N(CC(=O)Nc1ccc(C(F)(F)F)cc1)c1ccccc1 | inactive: 70%
Cc1ccc(OCCSc2nc3ccc(NC(=O)c4cccs4)cc3s2)cc1 | inactive: 88%
Cc1ccc(S(=O)(=O)N2CC=C(c3c(C)n(CC(=O)N4CCCC4)c4ccccc34)CC2)cc1C | inactive: 72%
COc1ccc(C(=O)Oc2ccc3oc(=O)sc3c2)cc1 | inactive: 95%
Cc1sc(-n2cccc2)c(C(C)NC(=O)Nc2cccc(C(F)(F)F)c2)c1C (stereo unspecified) | active: 23%
COc1cc(OC)cc(C(=O)NCCc2csc3nc(-c4ccccc4F)nn23)c1 | inactive: 84%
Cc1ccc(-n2c(=O)c3c(c4cc(C)ccc4n3C)n(CC(=O)Nc3ccc(F)cc3)c2=O)cc1 | inactive: 97%

SMILES | survival
CC(=O)c1ccc(N2CCN(C(=O)c3cn(C)c(=O)c4c3c3ccccc3n4C)CC2)cc1 | inactive: 52%
CCS(=O)(=O)N1CCc2cc(C(=O)Nc3ccc(Br)cc3F)ccc21 | inactive: 98%
CCc1cccc(C)c1NC(=O)c1ccc2c(c1)CCN2S(=O)(=O)c1ccc(Cl)cc1 | inactive: 67%
COc1ccc(CNC(=O)COCc2cc(-c3ccc4c(c3)OCO4)on2)cc1 | inactive: 94%
COCCCNc1nc2c(c(=O)n(Cc3ccc(F)cc3)c(=O)n2C)n1C | inactive: 132%
Cc1cc(C)cc(NC(=O)CCc2c(C)nc3nc(CNC(=O)c4cccc(F)c4)nn3c2C)c1 | inactive: 64%
CCCCC(=O)Nc1nnc(S(=O)(=O)N(C)Cc2ccc(Cl)cc2)s1 | inactive: 102%
COc1ccc(N(Cc2cccs2)C(=O)c2ccco2)cc1 | inactive: 73%
O=c1cc(COc2ccc(Cl)cc2Cl)nc2scc(-c3ccccc3)n12 | inactive: 67%
COc1ccccc1OCC(=O)N(Cc1ccco1)Cc1ccccc1F | inactive: 64%
CC(CNC(=O)c1ccc2c(c1)nc1n2CCCCC1)c1ccccc1 (stereo unspecified) | inactive: 62%
CCOc1ccc(CC(=O)NC2CC(=O)N(c3cccc(F)c3)C2)cc1 (stereo unspecified) | inactive: 78%
CCCCC(CC)C(=O)Nc1ccccc1C#N (stereo unspecified) | inactive: 93%
Cc1ccc(C2C(=O)N(C3CCC(C)CC3)CC(=O)N2C2CCCC2)cc1 (stereo unspecified) | inactive: 83%
COc1ccccc1-c1nn2c(=O)cc(CN3CCN(C(=O)Nc4ccc(C)cc4Cl)CC3)nc2s1 | inactive: 78%
CCOc1ccc(-n2c(=O)c3c(C)c(C)sc3n(CC(=O)C(C)(C)C)c2=O)cc1 | inactive: 121%
O=C1CCCN1CCCNc1ccc(Cl)nn1 | inactive: 103%
Cc1cc(NS(=O)(=O)c2ccc(NC(=O)COc3c(C)ccc(C)c3C)cc2)nc(C)n1 | inactive: 51%
CCOc1ccc(NC(=O)Cn2c(=O)n(CCCC(=O)NCCc3ccc(Cl)cc3)c(=O)c3ccccc32)cc1 | inactive: 107%
Cc1ccccc1-c1noc(-c2ccc(NCC3CCCO3)c([N+](=O)[O-])c2)n1 (stereo unspecified) | inactive: 82%
COc1ccccc1CNC(=O)CC(c1ccc(F)cc1)N1Cc2ccccc2C1=O (stereo unspecified) | inactive: 71%
Cc1cccc(N2CCN(S(=O)(=O)c3ccc(-c4cnc(C5CC5)o4)cc3)CC2)c1C | inactive: 77%
Cc1ccc(Cn2c(SCC(=O)NCc3ccccc3)nc3ccsc3c2=O)cc1 | inactive: 92%

SMILES | survival
CCOC(=O)c1cccc(NC(=O)C(C)n2nc(C)c3c(C)n(-c4ccccc4)nc3c2=O)c1 (stereo unspecified) | inactive: 101%
COc1ccc(-c2[nH]c(-c3ccc(O)cc3)nc2-c2ccccc2)cc1 | active: 3%
Cc1ccc([N+](=O)[O-])cc1NC(=O)CN(c1ccccc1)S(=O)(=O)N(C)C | inactive: 58%
Cc1oc(-c2ccccc2F)nc1CS(=O)(=O)CC(=O)N1CCN(c2ccccc2)CC1 | inactive: 77%
COc1ccc(OC)c(S(=O)(=O)NCC(c2ccc(N(C)C)cc2)N2CCOCC2)c1 (stereo unspecified) | inactive: 75%
COC(=O)c1cc(NC(=O)c2cc3c(-c4ccccc4F)nn(C)c3s2)cc(C(=O)OC)c1 | inactive: 93%
COc1ccc(N2CCN(S(=O)(=O)c3ccc(CC(C)C)cc3)CC2)cc1 | active: 56%
O=C(NCC(c1ccco1)S(=O)(=O)c1cccs1)c1ccccc1 (stereo unspecified) | inactive: 63%
Cc1c(Cl)cccc1Nc1nn2c(=O)c3ccccc3nc2s1 | inactive: 73%
Cc1ccc(-n2c(C)cc(/C=N/NC(=O)CC3(C)OCCO3)c2C)cc1 | inactive: 90%
CCOC(=O)c1cc2c(=O)n3ccccc3nc2n(Cc2ccco2)c1=NC(=O)c1ccccc1Br | inactive: 71%
O=C(NCc1ccc2c(c1)CCN2C(=O)c1ccccc1)c1cc2ccccc2[nH]1 | active: 6%
CN1CCc2nc3sc(C(=O)c4ccc5c(c4)OCO5)c(N)c3cc2C1 | inactive: 109%
CCc1ccc(NC(=O)c2sc3ncnc(N(C)C4CCCCC4)c3c2C)cc1 | inactive: 101%
CC(=O)C1=C(c2ccc(C)cc2)N(C(C)=O)n2c(nnc2C2CCCCC2)S1 | inactive: 94%
COc1ccc(CNC(=O)Nc2ccc3c(c2)N(C)C(=O)c2ccccc2S3)cc1 | inactive: 112%
CCOc1ccc(C2C(C(N)=O)=C(C)Nc3nc(SCc4ccccc4)nn32)cc1 (stereo unspecified) | inactive: 64%
CC1(C)Cc2c(c(N3CCOCC3)nc3oc(C(=O)c4ccccc4)c(N)c23)CO1 | inactive: 90%
O=C(CN1C(=O)COc2ccc(S(=O)(=O)N3CCCC3)cc21)N1CCN(c2ccccc2)CC1 | inactive: 49%
CCc1cc2c(NCCN3CCCCC3)ncnc2s1 | inactive: 85%
Cc1cccc2cc(CN(CCO)S(=O)(=O)c3ccc(Cl)cc3)c(=O)[nH]c12 | inactive: 82%
CC(C)c1ccc(S(=O)(=O)c2nnn3c2nc(N2CCN(C)CC2)c2sccc23)cc1 | inactive: 34%
